The source gives no read counts; variants with many changes may rest on few reads.
B1: CPEB3 Ribozyme (parent)
chain: UAACAGGGGGCCACAGCAGAAGCGUUCACGUCGCAGCCCCUGUCAGAUUCUGGUGAAUCUGCGAAUUCUGCUGUAUAUCUC

Variants of: B1
Test: self-cleavage, relative activity (ratio to wild type); higher = more cleavage; in vitro, sequencing
Procedure, shortened: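 After error-prone PCR and barcoding, CPEB3 ribozyme mutant libraries were transcribed with T7 RNA polymerase at 37°C for 5 hours, then given 15 min with DNase I before an EDTA stop, and they cleaved during both steps. Reverse transcription with template switching preceded Illumina sequencing. Relative activity divides a variant's cleaved/total read fraction by the unmutated ribozyme's. At least 5 reads were required per variant, and three batches were averaged.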
In the case of U31C U43A U51G A57G U67C, the self-cleavage is reported as 0.14.
Work on U31G C38U U78C yielded a self-cleavage of 0.21.
Variant U31C U41A A56U U58A U66G U69C U78C has a self-cleavage of 0.06.
C32A U60A U67A A77U showed a self-cleavage of 0.17.
For U31C U54G U58C U76A, the self-cleavage was 0.26.
Work on U31C U54C A56G U72C yielded a self-cleavage of 0.45.
Work on C32U U43G U76C yielded a self-cleavage of 0.3.
Work on G33A U48A U49G G53A U72A U76A yielded a self-cleavage of 0.06.
In the case of G33A C40U U72A, the self-cleavage is reported as 0.09.
With G33A U41C A45C U80C the self-cleavage was 0.07.
In the case of C34A A57U U66C U76C, the self-cleavage is reported as 0.09.
G33A U43C A45G U49C C62U U72A showed a self-cleavage of 0.06.
With U31C U54G U72C the self-cleavage was 0.99.
U31C U54C U69G gave a self-cleavage of 0.26.
G33A U41G A56G showed a self-cleavage of 0.38.
With G33C G55U U66C U72C A77G the self-cleavage was 0.08.
C34A A35G C40U gave a self-cleavage of 0.28.
Work on G33A U51C A56U U58G U60A U76A yielded a self-cleavage of 0.05.
In the case of C32G G36C U43C A57G G63A A77C, the self-cleavage is reported as 0.09.
Variant C34G U43G U48C has a self-cleavage of 0.07.
G33U C39U U43A U72A showed a self-cleavage of 0.1.
C32U U51C U58G U74C showed a self-cleavage of 0.12.
Variant U31C G52A U72C U80C has a self-cleavage of 1.2.
With U31C U41C U51A U54C the self-cleavage was 0.75.
For U31G A45C U51A A75U, the self-cleavage was 0.09.
Variant C32A U49A C62G has a self-cleavage of 0.12.
U31C G61C U78C gave a self-cleavage of 0.19.
C32U U51C C71A showed a self-cleavage of 0.45.
G33A A57G U60A U80C showed a self-cleavage of 0.38.
C32A U41C A45G A56G U66C showed a self-cleavage of 0.12.
With C32U A56U A57G A75G the self-cleavage was 0.11.
With U31C G52C U54C A65U the self-cleavage was 0.19.
For C34A U58C C68U, the self-cleavage was 0.12.
G33A A35U G36C C40U A57G showed a self-cleavage of 0.18.
C34G A56U U72C gave a self-cleavage of 0.13.
For U31C U54C A57G A64G, the self-cleavage was 0.2.
Variant U31G U48A A57G has a self-cleavage of 0.12.
Work on C32A C50U U51G U54C U76C yielded a self-cleavage of 0.06.
In the case of G33U U49C U54C, the self-cleavage is reported as 0.04.
U31G A45G U78C gave a self-cleavage of 0.42.
For C32U C38A U41C U43A U54C, the self-cleavage was 0.17.
For G33U A35G U54C A56C A64G, the self-cleavage was 0.1.
Work on G33U U78C C79A yielded a self-cleavage of 0.09.
U31C U43C U54C U60C showed a self-cleavage of 0.16.
In the case of G33U U43C U48C U49C U51G G61A U69A, the self-cleavage is reported as 0.06.
C32U G33A A35G U43A showed a self-cleavage of 0.14.
With C32U U58C U69A the self-cleavage was 0.07.
With U31C U51A A56G the self-cleavage was 0.36.
C32G A56G U69C showed a self-cleavage of 0.08.
G33C A35G U41C G63A U67C showed a self-cleavage of 0.08.
For G33A U60G U69C, the self-cleavage was 0.06.
In the case of U31C U41C A45U U72C G73C U78A, the self-cleavage is reported as 0.39.
With C34A A47G U66C the self-cleavage was 0.16.
G33A U49C A57U U66C U76A U80C showed a self-cleavage of 0.05.
For U31C G53C A75C U76C, the self-cleavage was 1.04.
C32U A35U G53U U54A gave a self-cleavage of 0.04.
U31C U43C G46U U67C U72C showed a self-cleavage of 0.15.
U31C U72G A75C U80C showed a self-cleavage of 0.8.
G33A U41A U43A U49C C59U U76A showed a self-cleavage of 0.04.
Work on G33C U51C U69C U76A U78C yielded a self-cleavage of 0.07.
With G33C C40A A65G the self-cleavage was 0.04.
Work on U31C U72A G73U A77G yielded a self-cleavage of 0.73.
C32U C40U A45G gave a self-cleavage of 0.18.
Work on C32A U69C U72A yielded a self-cleavage of 0.1.
Work on G33A A45U U58A U60C yielded a self-cleavage of 0.13.
In the case of U31C G55A A65G, the self-cleavage is reported as 0.2.
In the case of U31C U69C G73A, the self-cleavage is reported as 0.5.
C32A U41C U69G showed a self-cleavage of 0.07.
Variant C32A U43C G73C U74A has a self-cleavage of 0.21.
Work on C32G U49C U54C G63C G70A yielded a self-cleavage of 0.06.
U31G U43C C59U A64U G73A U78C gave a self-cleavage of 0.1.
U31C U69C A75G showed a self-cleavage of 0.2.
In the case of C32U C40A U58C U80A, the self-cleavage is reported as 0.22.
Work on C32U U74C A75G yielded a self-cleavage of 0.22.
Work on G33A C38U C44U A56U A64G yielded a self-cleavage of 0.1.
In the case of C32U C40G U41C U43A U58C, the self-cleavage is reported as 0.15.
For U31C U41C A45U, the self-cleavage was 0.33.
With U31C U41C A45G the self-cleavage was 0.4.
For U31G U48C A56U U67C, the self-cleavage was 0.12.
For U31C G63A U76C, the self-cleavage was 0.56.
Variant C34A G53A U67A U74C has a self-cleavage of 0.15.
U31G C44U U54G U72C showed a self-cleavage of 0.23.
C34A U60C U76A showed a self-cleavage of 0.16.
Work on C34A G36A U51C A64U U69C U78C yielded a self-cleavage of 0.13.

Source: the RNAGym collection of RNA variant scans (doi:10.1093/nar/gkz1192)
